Assay results published in the supplement of paper PMC8007513.
Where a name gives a salt, the structure may show the parent alone. ± gives the standard error. In all, about 1,300 compounds went through this assay and about 130 (10%) showed an effect of 50% or more. The list shows a part of the results, in another mix than the full data.

Test system: Trichoderma virens ATCC 9645
Test: growth yield (OD600) with compound + IPBC relative to untreated control; higher = less growth inhibition
Settings: compound concentration: 100 uM, IPBC concentration: 200 ng/ml
Outline: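 For each 96-well plate, 100 μl aliquots were prepared with Trichoderma virens ATCC 9645 spores suspended at 15,000 spores ml^−1 in potato dextrose broth. The spores had been harvested from potato dextrose agar plates after 7 days. Library compounds were present at 100 μM final, some wells also receiving a biocide at 200 ng ml^−1, and plates were grown at 30 °C with OD600 read on a BioTek EL800 at 40 h and 72 h. Reported growth, relative to the control lacking both agents, is the mean of duplicate screens.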

SMILES | growth yield (40 h) [%] | growth yield (72 h) [%]
C=CC1=C(C(=O)O)N2C(=O)[C@@H](NC(=O)/C(=N\O)c3csc(N)n3)[C@H]2SC1 [Cefdinir] + CCCCNC(=O)OCC#CI [3-iodo-2-propynyl butylcarbamate (IPBC)] | 102 ± 1.1 | 102 ± 2.5
CCN(CC)CC(=O)Nc1c(C)cccc1C [Lidocaine hydrochloride] + CCCCNC(=O)OCC#CI [3-iodo-2-propynyl butylcarbamate (IPBC)] | 90.06 ± 0.79 | 91.5 ± 1.3
CC(=O)OCC(=O)[C@@]12OC(C)(C)O[C@@H]1C[C@H]1[C@@H]3C[C@H](F)C4=CC(=O)C=C[C@]4(C)[C@@]3(F)[C@@H](O)C[C@@]12C [Fluocinonide] + CCCCNC(=O)OCC#CI [3-iodo-2-propynyl butylcarbamate (IPBC)] | 96.893 ± 1e-14 | 95.3 ± 1.1
c1ccc2c(CC3=NCCN3)cccc2c1 [Naphazoline hydrochloride] + CCCCNC(=O)OCC#CI [3-iodo-2-propynyl butylcarbamate (IPBC)] | 87 ± 1.9 | 91.9
COc1ccc2c(c1)[C@]13CCCC[C@@H]1[C@H](C2)N(C)CC3 [Dextromethorphan hydrobromide monohydrate] + CCCCNC(=O)OCC#CI [3-iodo-2-propynyl butylcarbamate (IPBC)] | 76.6 ± 2.5 | 90.8 ± 3.4
CC1(C)S[C@@H]2[C@H](NC(=O)[C@H](N)c3ccccc3)C(=O)N2[C@H]1C(=O)O [Ampicillin trihydrate] + CCCCNC(=O)OCC#CI [3-iodo-2-propynyl butylcarbamate (IPBC)] | 90.1 ± 7.2 | 96.3 ± 7.5
COc1ccc2cc([C@H](C)C(=O)O)ccc2c1 [(S)-Naproxen] + CCCCNC(=O)OCC#CI [3-iodo-2-propynyl butylcarbamate (IPBC)] | 61.3 ± 1.9 | 78.6 ± 1.1
C/C=C(/C(=C/C)c1ccc(O)cc1)c1ccc(O)cc1 [Dienestrol] + CCCCNC(=O)OCC#CI [3-iodo-2-propynyl butylcarbamate (IPBC)] | 94.8 ± 3.3 | 93.8 ± 2.3
O=C(O)c1ccccc1OP(=O)(O)O [Fosfosal] + CCCCNC(=O)OCC#CI [3-iodo-2-propynyl butylcarbamate (IPBC)] | 86.1 ± 7.9 | 98.2 ± 5.9
CC(=O)O[C@H]1C(=O)[C@@]2(C)[C@H]([C@H](OC(=O)c3ccccc3)[C@]3(O)C[C@H](OC(=O)[C@H](O)[C@@H](NC(=O)c4ccccc4)c4ccccc4)C(C)=C1C3(C)C)[C@]1(OC(C)=O)CO[C@@H]1C[C@@H]2O [Paclitaxel] + CCCCNC(=O)OCC#CI [3-iodo-2-propynyl butylcarbamate (IPBC)] | 97.5 ± 1.9 | 100 ± 1.3
COc1cccc2c1C(=O)c1c(O)c3c(c(O)c1C2=O)C[C@@](O)(C(=O)CO)C[C@@H]3O[C@H]1C[C@H](N)[C@@H](O)[C@H](C)O1 [Epirubicin hydrochloride] + CCCCNC(=O)OCC#CI [3-iodo-2-propynyl butylcarbamate (IPBC)] | 42.7 ± 0.48 | –
N/C(=N\C(=O)c1nc(Cl)c(N)nc1N)NCc1ccccc1 [Benzamil hydrochloride] + CCCCNC(=O)OCC#CI [3-iodo-2-propynyl butylcarbamate (IPBC)] | 81.5 ± 1.4 | 94.28 ± 0.1
O=C(CCNNC(=O)c1ccncc1)NCc1ccccc1 [Nialamide] + CCCCNC(=O)OCC#CI [3-iodo-2-propynyl butylcarbamate (IPBC)] | 94.4 | 90.61 ± 0.42
CSc1nc2cc(Cl)c(Oc3cccc(Cl)c3Cl)cc2[nH]1 [Triclabendazole] + CCCCNC(=O)OCC#CI [3-iodo-2-propynyl butylcarbamate (IPBC)] | 66.7 ± 3.2 | 120 ± 6.5
Cc1nc2ccccn2c(=O)c1CCN1CCC(C(=O)c2ccc(F)cc2)CC1 [Pirenperone] + CCCCNC(=O)OCC#CI [3-iodo-2-propynyl butylcarbamate (IPBC)] | 90.9 ± 6.3 | 93.8 ± 2.9
NC(=O)c1cnccn1 [Pyrazinamide] + CCCCNC(=O)OCC#CI [3-iodo-2-propynyl butylcarbamate (IPBC)] | 90.4 ± 7.5 | 95 ± 5
CC=CC1=C(C(=O)O)N2C(=O)[C@@H](NC(=O)[C@H](N)c3ccc(O)cc3)[C@H]2SC1 [Cefprozil] + CCCCNC(=O)OCC#CI [3-iodo-2-propynyl butylcarbamate (IPBC)] | 113 ± 4.9 | 103 ± 0.63
Cc1cc2c(s1)Nc1ccccc1N=C2N1CCN(C)CC1 [Olanzapine] + CCCCNC(=O)OCC#CI [3-iodo-2-propynyl butylcarbamate (IPBC)] | 70.4 ± 0.79 | 91.6 ± 1.1
CC(Cc1ccc(O)cc1)NCC(O)c1cc(O)cc(O)c1 (centres undefined) [Fenoterol hydrobromide] + CCCCNC(=O)OCC#CI [3-iodo-2-propynyl butylcarbamate (IPBC)] | 91.7 ± 5.9 | 95.4 ± 5
C1CCc2nnnn2CC1 [Pentylenetetrazole] + CCCCNC(=O)OCC#CI [3-iodo-2-propynyl butylcarbamate (IPBC)] | 104 ± 2.9 | 102.9 ± 0.73
CN1CCCN=C1/C=C/c1cccc(O)c1 [Oxantel pamoate] + CCCCNC(=O)OCC#CI [3-iodo-2-propynyl butylcarbamate (IPBC)] | 81.2 ± 5.6 | 103 ± 3.4
CC(N)CCCC(C)(C)O (centres undefined) [Heptaminol hydrochloride] + CCCCNC(=O)OCC#CI [3-iodo-2-propynyl butylcarbamate (IPBC)] | 88.63 ± 0.32 | 93.4 ± 1.1
O=C(O)c1cc(/N=N/c2ccc(S(=O)(=O)Nc3ccccn3)cc2)ccc1O [Sulfasalazine] + CCCCNC(=O)OCC#CI [3-iodo-2-propynyl butylcarbamate (IPBC)] | 89.7 ± 3.3 | 95.9 ± 2.3
CNCC(O)c1ccc(O)cc1 (racemic) [(+,-)-Synephrine] + CCCCNC(=O)OCC#CI [3-iodo-2-propynyl butylcarbamate (IPBC)] | 81.3 ± 3.8 | 93.8 ± 6.3
C/C(=C\C(=O)OCCCCCCCCC(=O)O)C[C@@H]1OC[C@H](C[C@@H]2O[C@H]2[C@@H](C)[C@H](C)O)[C@@H](O)[C@H]1O [Mupirocin] + CCCCNC(=O)OCC#CI [3-iodo-2-propynyl butylcarbamate (IPBC)] | 6.51 ± 1.4 | 43.4 ± 5.7
